Measurements as given in PMC12040169 (PLOS Biology, 2025).
The list shows a part of the results.

System: T1, C. trachomatis L2/434/Bu expressing GFP (CTL2-GFP)
T1 construct: L2/434/Bu GFP intracellular growth in HeLa cells
Set-up: species or system HeLa; C. trachomatis total inclusion area by high-content imaging, normalised to DMSO
Conditions: total inclusion area; 28.5 h, 10 µM; inhibitor
Outline: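 Post-fluorescence-read fixation, DNA staining with Hoechst and high-content imaging; GFP inclusion area and number per well, and nuclei counts, used as proxies for bacterial growth and host viability.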

SMILES	% of control remaining
CCN(CC)S(=O)(=O)c1cc(C(=O)Nc2ccccc2C(=O)O)c(Cl)cc1Cl [CBK265731]	102.996
CSCCC(=O)NC1CCCc2nc(N3CCC(CO)CC3)ncc21 (centres unmarked) [CBK306782]	38.7578
CCOC(=O)c1cnn(C2CCCN(Cc3ccsc3)C2)c1 (centres unmarked) [CBK305112]	121.917
COc1ccc(C(=O)NNC(=O)c2cc(OC)cc(OC)c2)cc1 [CBK262616]	106.746
COc1ccc(CNC(=O)c2cn[nH]c2-c2ccccc2)c(OC)c1 [CBK288057]	81.3232
COc1ccc(-c2csc(Nc3ccc(N)cc3)n2)cc1OC [CBK074456]	77.9906
CNC(=O)NC(=O)CN1CCC(CNc2ncccc2C#N)C1 (centres unmarked) [CBK306126]	36.2534
CC(C)NC(=O)c1ccccc1Br [CBK026505]	83.7934
CCCC(=O)NCc1ccc(-c2cc(CN(C)C)n(C)n2)cc1 [CBK282007]	75.7189
O=C(CC1S/C(=N/N=C/c2ccc(-c3cc([N+](=O)[O-])ccc3Cl)o2)NC1=O)Nc1ccccc1 (centres unmarked) [CBK264592]	108.662
COc1ccc(CCCC(=O)NC2CCCCC2C)cc1 (centres unmarked) [CBK026124]	112.271
Cn1nccc1CCNC(=O)c1cccc(S(=O)(=O)N2CCCCC2)c1 [CBK304363]	120.976
O=C(O)C1C2C=CC3(CN(C/C=C/c4ccccc4)C(=O)C13)O2 (centres unmarked) [CBK286946]	98.5479
CCC(C)c1ccccc1NC(=O)c1cc(=O)[nH]c2ccccc12 (centres unmarked) [CBK297516]	83.2217
CC(C)CC(=O)Nc1nc(OCC(F)(F)F)cnc1-c1ccc(Cl)cc1Cl [CBK145356]	119.719
COc1cc(C(c2c[nH]c3ccccc23)c2c[nH]c3ccccc23)ccc1OCC(=O)O [CBK265717]	107.843
CC(=O)Nc1ccc([C@@H](O)[C@H]2COCC(=O)N2Cc2ccc(C(F)(F)F)cc2)cc1 [CBK289678]	110.86
Cc1cccc(C)c1NC(=O)Cn1nnc(-c2ccc(CN3CCC(C)CC3)cc2)n1 [CBK121194]	94.0353
O=C1c2ccccc2NC(C(=O)O)(c2ccccc2)N1c1ccccc1Cl (centres unmarked) [CBK287169]	103.207
Cc1nn(CC(=O)NC2CCC2)c(=O)c2cc3ccsc3n12 [CBK284103]	93.7824
CC1=C/C(=C(\C#N)C(N)=O)NC(c2ccccc2O)=N1 [CBK019764]	104.117
O=S(=O)(Nc1nnn[nH]1)c1ccc(-c2cc(C(F)(F)F)on2)s1 [CBK062393]	89.3849
CC[C@H](Cn1ncc2ccccc2c1=O)NC(=O)c1ccc2c(c1)Sc1ccccc1O2 [CBK286173]	110.7
Cc1ccc2nc(-c3ccccc3)cc(C(=O)NCCCn3ccnc3)c2c1 [CBK268526]	119.833
FC(F)(F)c1ccnc(OCc2cccnc2)n1 [CBK115902]	104.27
Cc1nc(NC(=O)CN2CCN(c3cccc(Cl)c3)CC2)sc1C [CBK305902]	11.0568
O=C(Cn1c([C@@H]2CCCO2)cc2cccnc21)N1CCCCC1 [CBK282286]	65.8172

SMILES	% of control remaining
CC(C)OC(=O)N1CCN(C(=O)c2cn(Cc3cccc(S(C)(=O)=O)c3)nn2)CC1 [CBK160994T]	100.236
CCOC(=O)CCNC(=O)c1cncc(-c2ccc(C(=O)N3CCOCC3)cc2)c1 [CBK158645]	102.782
CN(C)c1ccc(Nc2ncnc3c2cnn3CCC#N)cn1 [CBK306231]	16.2849
CC(C)C(=O)N1CC2(CCN(CCc3cccc4ccccc34)CC2)c2ccccc21 [CBK136978]	52.9462
Cc1cc(C)n(CC(=O)NC(Cc2cccs2)c2nccs2)n1 (centres unmarked) [CBK284686]	97.9963
COc1ccc(F)c(CN2CC3CCCN3C[C@@H]2C)c1 (some centres unmarked) [CBK284549]	103.315
Cc1nc2c(C)cccc2cc1C(=O)NCCCc1ccccn1 [CBK282148]	88.6972
O=C(COc1ccccc1)N/N=C/c1ccc[nH]1 [CBK261281]	111.723
CS(=O)(=O)N1CCC(c2nc(-c3ccc(C(F)(F)F)cc3)c3ccccn23)CC1 [CBK036006]	104.693
O=C(N/N=C/c1c(Cl)cccc1Cl)c1cc(Br)ccc1O [CBK262022]	104.018
Cc1csc(NC(=O)C2CC(=O)N(C3CCCC3)C2)n1 (centres unmarked) [CBK175501]	93.2468
OC1CCN(Cc2ccc(-c3ccc(F)cc3F)o2)CC1 [CBK283200]	68.2321
Cc1nc(C(=O)N2CCn3nc(C(O)Cc4ccccc4)cc3C2)cs1 (centres unmarked) [CBK307214]	77.2178
CC(=O)C1=C(O)C(=O)N(CCN2CCOCC2)C1c1cccc([N+](=O)[O-])c1 (centres unmarked) [CBK264568]	112.837
COc1ccc(-c2nccnc2N[C@@H](CO)C(C)C)cc1 [CBK089040]	69.1784
CC1CCN(CC(=O)NC2CCN(C(C)c3ccccc3)CC2)CC1 (centres unmarked) [CBK284017]	94.0078
CS(=O)(=O)N1CC2(CCN(C(=O)[C@@H]3CNC[C@H]3c3ccccc3)CC2)c2ccccc21 [CBK022572]	68.1187
Cc1nc2cccnc2n1CCNC(=O)Cc1cccs1 [CBK283592]	101.344
Cc1ccc(N(CC(=O)N/N=C/c2ccc(Cl)cc2)S(=O)(=O)c2ccccc2)cc1 [CBK262182]	87.7629
CSc1nnc(CC2CCN(C(=O)c3cc(C)c(C)cc3C)CC2)n1C [CBK307467]	56.3464
Cc1ncccc1COC(=O)N1Cc2ccccc2C1 [CBK200138]	91.1685
Cc1ccc2cc(C)c3nn(CC(=O)NC4CC4)c(=O)n3c2c1C [CBK283822]	80.4632
O=C1CC(c2ccc(F)cc2)Cc2[nH]c(=O)c(C(=O)O)cc21 (centres unmarked) [CBK287200]	116.315
Cc1ccccc1N1C(=O)c2ccc(C(=O)OCC(=O)c3ccc(Cl)c([N+](=O)[O-])c3)cc2C1=O [CBK264108]	117.447
COc1ccc(CCN(Cc2ccc(Cl)c(Cl)c2)C(=O)NCc2ccc(C#N)cc2)cc1OC [CBK158771]	105.179
CC(C)c1nc(C(=O)NCC2CCCN(c3ncccn3)C2)cs1 (centres unmarked) [CBK304351]	77.2563
CC(C)Cn1ncc2cc(C(=O)Nc3ccnn3C(C)C)cnc21 [CBK304938]	35.3005

SMILES	% of control remaining
Cc1ccc(NC(=S)N2CCN(C/C=C/c3ccccc3)CC2)cc1 [CBK264574]	104.358
CCN1CCN(c2nc(N)c3ccccc3n2)CC1 [CBK268561C]	86.62
COc1cc(NC(=O)CN2C(=O)c3ccc([N+](=O)[O-])cc3C2=O)c(C(=O)O)cc1OC [CBK265109]	88.0054
COc1ccccc1N1CCN(CCCCNS(=O)(=O)c2ccc(Cl)c(Cl)c2)CC1 [CBK074837]	78.183
CCN(CC)CCN1C(=O)CCC2(c3ccccc3)CCC(=O)C=C12 (centres unmarked) [CBK023010C]	87.3121
O=C(Cc1ccsc1)Nc1snnc1-c1ccc(Cl)cc1 [CBK153243]	97.9808
C#CCNC(=O)CC[C@H]1CNC(=O)[C@@H]2[C@@H](CCN2Cc2cccs2)N1C [CBK289033]	115.211
CN1CCC(N2CCN(C(=O)NCCN3CCOCC3)CC2)CC1 [CBK155891]	98.2665
CC(C)(C)c1ccc(C(=O)N2CC(C(=O)O)C2)cc1 [CBK008670]	41.5689
COc1ccc2sc(Nc3ccc(F)cc3)nc2c1 [CBK287641]	103.167
CCc1oc2ccc(Cl)cc2c1C(=O)CCN1CCCCC1 [CBK009675C]	100.55
CC(C)CC(=O)N1CCCC(n2c(=O)oc3ccc(Cl)cc32)C1 (centres unmarked) [CBK282891]	82.594
CNc1nc(N)nc(OCC(F)(F)F)n1 [CBK028082]	57.7188
O=C(CSc1nnc(-c2ccco2)o1)c1ccc2c(c1)OCCO2 [CBK266387]	65.3767
CN1CCN(CC(=O)Nc2sc3c(c2C(=O)Nc2ccccc2)CCCC3)CC1 [CBK268431]	92.034
Cn1ccnc1C1(O)CC2CCC(C1)N2C(=O)c1cccs1 (centres unmarked) [CBK284088]	105.754
CCc1nnc(NS(=O)(=O)c2ccc(Nc3ccc([N+](=O)[O-])c4nonc34)cc2)s1 [CBK261442]	86.5948
Cc1c(Cc2ccccc2)c(N2CCN(Cc3ccccc3)CC2)n2c(nc3ccccc32)c1C#N [CBK263150]	107.579
COC(C(=O)N(C)C)C(OC)C(=O)N(C)C (centres unmarked) [CBK005447]	79.4843
O=C(c1nccs1)C1CCN(C(=O)Cc2ccc(F)cc2)CC1 [CBK284199]	97.2824
Cc1nn(C(C)C)c(C)c1CN(CCO)Cc1cccs1 [CBK283016]	113.096
COc1ccc(C)cc1S(=O)(=O)n1ccc2c(CNC3CCN(C(C)C)CC3)cccc21 [CBK113310T]	34.5383
N#Cc1ccc(S(=O)(=O)NC2CCCCNC2=O)cc1 (centres unmarked) [CBK009293]	71.8944
O=C(CSc1ccc(Cl)cc1)OCC(=O)c1ccccc1 [CBK264306]	97.729
Cc1ccc2[nH]c(SC(C)C(=O)N3CCOCC3)nc2c1 (centres unmarked) [CBK306187]	59.2269
Cc1cnn(CCC(=O)NC(Cc2ccsc2)c2nccs2)c1 (centres unmarked) [CBK284664]	129.454
